Measured values from ChEMBL document CHEMBL4888484, “Replenishing the malaria drug discovery pipeline: Screening and hit evaluation of the MMV Hit Generation Library 1 (HGL1) against asexual blood stage Plasmodium falciparum ,using a nano luciferase reporter read-out” (2022).
Among all 150,000 compounds or so, about 540 (0.36%) showed an effect of 50% or more. The list shows a part of the results.

The compounds below were run on Plasmodium falciparum (assay: Primary screen in NF54 nanoGlo assay, in single point, at 2uM, 72h; a lower Z score goes with more inhibition). Conditions: timepoint 72 hour.
Format: functional, Erythrocyte
For `CS(=O)(=O)N1CCN(C(=O)[C@@H]2CCCn3c(-c4ccccc4)cnc32)CC1`, the “% Inhibition” value was -6% and the Z score was 0.86.
With `O=C(NCC1CCN([C@H]2CCOC2)CC1)c1ccccc1` the “% Inhibition” value was -8% and the Z score was 0.94.
With `Cn1ccc(NC(=O)C(=O)N2CCC[C@H](NCc3ccccc3)C2)n1` the “% Inhibition” value was -7% and the Z score was 0.93.
In the case of `COc1ccc(S(=O)(=O)[C@@H](CNC(=O)CC(C)C)c2cccnc2)cc1`, the “% Inhibition” value is reported as 10% and the Z score is reported as -1.36.
With `COC[C@H]1CN(CC(=O)N(C)C)CC(C)(C)O1` the “% Inhibition” value was -17% and the Z score was 2.46.
`CC(NC(=O)C1CCCN(C(=O)c2cccn2-c2cccnc2)C1)c1ccccc1` (centres undefined) was tested, and the “% Inhibition” value was -1% and the Z score was 0.22.
With `N#Cc1cccc(C(=O)N2CCN(C[C@H]3CCOC3)CC2)c1` the “% Inhibition” value was -10% and the Z score was 1.1.
With `Cc1noc(C)c1CCc1nc(CC(N)=O)nn1C1Cc2ccccc2C1` the “% Inhibition” value was -3% and the Z score was 0.43.
In the case of `Cc1ccc(C(=O)NCc2ccnc(-n3ccnc3C)c2)c(O)c1`, the “% Inhibition” value is reported as -42% and the Z score is reported as 4.96.
For `Cc1ccc(CCn2ncn(C)c2=O)cc1`, the “% Inhibition” value was -3% and the Z score was 0.58.
In the case of `CC(C)CC[C@](C)(O)CNC(=O)C(=O)Nc1cccc(F)c1F`, the “% Inhibition” value is reported as -13% and the Z score is reported as 2.44.
For `O=C(NC1CCS(=O)(=O)CC1)[C@@H]1CCOc2ccc(Cl)cc21`, the “% Inhibition” value was 0% and the Z score was -0.04.
With `Cc1nc(C)n(C2CN(C(=O)Cc3ccc4cn[nH]c4c3)C2)n1` the “% Inhibition” value was -8% and the Z score was 0.89.
`Cc1nc(C2CCN(C(=O)[C@H]3CC34CC4)CC2)[nH]c1C` was tested, and the “% Inhibition” value was -3% and the Z score was 0.32.
For `CC[C@@H](C(=O)N1CCN(CC2CCC2)CC1)N(C)CC`, the “% Inhibition” value was -4% and the Z score was 0.58.
In the case of `CC[C@H](NC(=O)c1ccc2nc(C)cn2c1)c1ccc(S(C)(=O)=O)cc1`, the “% Inhibition” value is reported as -9% and the Z score is reported as 1.86.
`Cc1noc(COc2ccc(C(=O)NC3CC3)cc2)n1` was tested, and the “% Inhibition” value was 0% and the Z score was -0.03.
With `CC(=O)N1N=C(c2cc(C)nc3ccccc23)O[C@H]1c1ccc2ccccc2c1` the “% Inhibition” value was 3% and the Z score was -0.48.
In the case of `Cc1ccc2oc(-c3noc([C@@H]4C[C@H]5CC[C@@H]4O5)n3)cc2c1`, the “% Inhibition” value is reported as 3% and the Z score is reported as -0.49.
`C=C1CCC(NS(=O)(=O)c2ccc(-n3cccn3)cc2)CC1` was tested, and the “% Inhibition” value was -4% and the Z score was 0.69.
`CC1CCN(C(=O)Nc2cccc(C#N)c2)CC[S+]1[O-]` (centres undefined) was tested, and the “% Inhibition” value was 10% and the Z score was -1.33.
For `CC(=O)Nc1ccc(CNC(C)[C@H]2COC(C)(C)O2)cn1` (some centres undefined), the “% Inhibition” value was 19% and the Z score was -2.39.
In the case of `CCOc1ccc(NCC(C)C)c(C(N)=O)c1`, the “% Inhibition” value is reported as 4% and the Z score is reported as -0.51.
`O=C(N[C@H]1CN[C@H](C(=O)N2CCOCC2)C1)c1cccc(Cl)c1Cl` was tested, and the “% Inhibition” value was -4% and the Z score was 0.87.
For `Cc1nnc(-c2ccc(=O)n(CC(=O)Nc3ccc(F)cc3)c2)o1`, the “% Inhibition” value was 0% and the Z score was 0.02.
In the case of `Cc1nc(-c2cccc(NC(=O)CN3CCC[C@H]3c3nc4ccccc4s3)c2)cs1`, the “% Inhibition” value is reported as -14% and the Z score is reported as 1.39.
With `Cc1ccc(-c2nc(Oc3cccc(Cl)c3)nc(-c3ccc(C)cc3)n2)cc1` the “% Inhibition” value was -9% and the Z score was 1.79.
`CC(C)Oc1ccc(NC(=O)NCc2ccc3cncn3c2)nn1` was tested, and the “% Inhibition” value was -4% and the Z score was 0.55.
For `CC1=C(C(=O)Nc2ccccc2)[C@H](c2ccc(Cl)cc2)c2c(n(C)c(=O)n(C)c2=O)N1`, the “% Inhibition” value was -3% and the Z score was 0.36.
`Cc1ccccc1OCC(=O)NCc1cc(-c2cccs2)nn1C` was tested, and the “% Inhibition” value was -18% and the Z score was 2.34.
With `Cc1ccnn1CCC(=O)N1C[C@@H]2CC[C@H]1CN(S(=O)(=O)N(C)C)C2` the “% Inhibition” value was -9% and the Z score was 1.86.
`Cc1cc(C)c(CNC(=O)c2cncnc2C)c(=O)[nH]1` was tested, and the “% Inhibition” value was -11% and the Z score was 1.68.
In the case of `COC1C2CC3CN(C(=O)NCCc4cscn4)C1C3C2` (centres undefined), the “% Inhibition” value is reported as 4% and the Z score is reported as -0.58.
`CCc1nc(CN2CCCC[C@H]2c2nnc(C3CCC3)o2)cs1` was tested, and the “% Inhibition” value was -11% and the Z score was 2.02.
With `COc1ccc(CN(CCC2(Cc3ccccc3)CC(C)N(C)CC2C)C(C)=O)cc1OC` (centres undefined) the “% Inhibition” value was -5% and the Z score was 0.58.
With `COc1ccc(-c2ccc(=O)[nH]n2)cc1S(=O)(=O)N1CCN(c2cccc(Cl)c2)CC1` the “% Inhibition” value was -20% and the Z score was 2.65.
With `Cc1cccc(-c2ccc(C(=O)NC[C@H](C)c3ccccc3)c(N3CCC(O)CC3)n2)c1` the “% Inhibition” value was -7% and the Z score was 1.13.
With `Cc1nc(CN(C)CCc2scnc2C)c[nH]1` the “% Inhibition” value was 2% and the Z score was -0.31.
In the case of `Cc1cc(-c2nnc(-c3ccccc3)o2)c(C)n1CC(=O)NCc1ccccc1F`, the “% Inhibition” value is reported as -17% and the Z score is reported as 3.27.
In the case of `CN(C)C(=O)C1CCCC(NC(=O)NC(Cc2ccccc2)c2ncco2)C1` (centres undefined), the “% Inhibition” value is reported as 11% and the Z score is reported as -1.44.
In the case of `Cc1cnc(CNC(=O)c2cccc(S(=O)(=O)N3CCC3)c2)cn1`, the “% Inhibition” value is reported as 1% and the Z score is reported as -0.16.
With `CN(C)Cc1ccc([C@@H]2CCCN2C2CCN(C(=O)c3cccs3)CC2)cc1` the “% Inhibition” value was -8% and the Z score was 1.17.
